{
  "source": "PubChem BioAssay AID686970",
  "about": "(National Center for Advancing Translational Sciences (NCATS), 2013)",
  "note": "About 6,000 (1.7%) of roughly 360,000 compounds were called active. The inconclusive results got no clear call from the source; some entries with a clear call stand among them for comparison. Calls follow the shape of the dose curve; as a rule, active = well fitted cell-killing curve with a large enough effect; inconclusive = small, poorly fitted or top-dose-only effect, or effect the other way; inactive = flat fitted curve, though single readings scatter. No potency is given beside an inconclusive call; the fits are too rough. Potency is read from the fitted curve at half-maximal effect; tags tell the direction and shape of the fitted curve.",
  "data": [
    {"assay": "qHTS for induction of synthetic lethality in tumor cells producing 2HG: qHTS for the HT-1080-NT fibrosarcoma cell line;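 also: NT is the 2HG producing partner of a matched IDH1 knockdown line; nearly all actives have a fitted effect of over 55% in size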;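 as to activity, negative = less viability: 0% = DMSO-treated cells and -100% = media-only wells without cells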", "settings": "HT-1080-NT fibrosarcoma viability, CellTiter-Glo ATP luminescence, 48 h; activity, negative = less viability: at 46.1 µM (top of the series) unless noted", "outline": "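HT-1080-NT fibrosarcoma cells (2HG-overproducing), 750 cells/well in RPMI with 5% FBS, dosed after 2 h and incubated 48 h at 37C. CellTiter-Glo luminescence normalized to DMSO and no-cell wells; concentration-response curves fitted and classed.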", "values": [
      {"compound": "COc1ccc2oc(C(=O)Nc3nc(C)cs3)c(C)c2c1", "Potency": "inconclusive [cytotoxic, single point]"},
      {"compound": "COc1ccccc1C(=O)OCC(=O)NC1CCCC1", "Potency": "inconclusive [rising, partial curve]"},
      {"compound": "CN1C(=O)C(O)(CC(=O)c2ccc(F)cc2)c2cc(Br)ccc21", "note": "(stereo unspecified)", "Potency": "inconclusive [cytotoxic, single point]"},
      {"compound": "CS(=O)(=O)N(CC(=O)NCCSC1CCCCC1)c1ccc2c(c1)OCO2", "activity, negative = less viability": "inactive: -1.87%"},
      {"compound": "CCOc1ncccc1C(=O)N1CCN(c2cc(Cl)ccc2C)CC1", "Potency": "active: 1.03 µM"},
      {"compound": "CCOC(=O)c1ccccc1NC(=O)COC(=O)CSc1ccccc1", "activity, negative = less viability": "inactive: -2.68%"},
      {"compound": "CCc1nnc(NC(=O)COc2ccc(N(C)S(=O)(=O)c3ccc(C)cc3)cc2)s1", "activity, negative = less viability": "inactive: 6.41%"},
      {"compound": "O=C(CCc1ccccc1)NNC(=S)NC(=O)c1ccc(Cl)cc1", "Potency": "inconclusive [cytotoxic, single point]"},
      {"compound": "COc1ccc(/C=C/c2c(-c3ccc(OC)cc3)oc3ccccc23)cc1", "activity, negative = less viability": "inactive: -3.45%"},
      {"compound": "Cc1cc(C)nc(-n2nc(C)c3c(C(=O)O)cc(-c4cccc(Br)c4)nc32)n1", "activity, negative = less viability": "inactive: -0.444%"},
      {"compound": "CCc1ccc(-c2cc(C)no2)cc1S(=O)(=O)N1CCCN(Cc2ccc(F)cc2)C1", "Potency": "active: 23.1 µM"},
      {"compound": "Cc1c(NC(=O)/C=C/c2ccc(S(=O)(=O)N3CCOCC3)cc2)c(=O)n(-c2ccccc2)n1C", "activity, negative = less viability": "inactive: 14.7%"},
      {"compound": "O=C(NCCc1cccs1)C1CC(c2cccc(F)c2)=NO1", "note": "(stereo unspecified)", "activity, negative = less viability": "inactive: -1.11%"},
      {"compound": "Cc1ccc(-c2ccc(/C=C3\\C(=O)ON=C3c3ccccc3)o2)c([N+](=O)[O-])c1", "Potency": "inconclusive [cytotoxic, single point]"},
      {"compound": "COc1cccc(N=Nc2ccc(O)c3ncccc23)c1", "Potency": "inconclusive [cytotoxic, full curve]"},
      {"compound": "COc1ccc(NC(=O)Nc2ccc(C)cc2OC(F)F)cc1OC", "activity, negative = less viability": "inactive: 5.16%"},
      {"compound": "CCOC(=O)Nc1nc(-c2ccccc2)c(C(=O)c2ccccc2)s1", "Potency": "active: 0.58 µM"},
      {"compound": "CCCCCCCCCCOC(=O)Cn1c(COc2ccc(OC)cc2)[n+](C)c2ccccc21", "Potency": "active: 20.6 µM"},
      {"compound": "Cc1ccc(S(=O)(=O)N2C[C@H]3C(=O)C[C@@H](c4ccc(Cl)cc4)N(S(=O)(=O)c4ccc(C)cc4)[C@H]3C[C@H]2c2cccc3ccccc23)cc1", "Potency": "inconclusive [rising, single point]"},
      {"compound": "C/C(=N\\N=C(/N)SC1CC(=O)N(c2ccc(Br)cc2)C1=O)c1cccs1", "note": "(stereo unspecified)", "Potency": "inconclusive [cytotoxic, single point]"},
      {"compound": "Cc1nc(C)c(-c2csc(Nc3ccccn3)n2)s1", "Potency": "inconclusive [cytotoxic, single point]"},
      {"compound": "NC(=O)C1=CC2C3C=CC2(O)C(=O)OC3O1", "note": "(stereo unspecified)", "Potency": "inconclusive [cytotoxic, single point]"},
      {"compound": "COc1cc2nc(SCc3ccc(Cl)cc3Cl)n(Cc3cccs3)c(=N)c2cc1OC", "activity, negative = less viability": "inactive: -9.35%"},
      {"compound": "CCc1ccc(-c2nn(-c3ccccc3)cc2CSC(=N)N)cc1", "Potency": "inconclusive [cytotoxic, single point]"},
      {"compound": "Fc1ccc(NC(=S)NCCc2ccccc2)c(F)c1F", "Potency": "inconclusive [cytotoxic, single point]"},
      {"compound": "COc1ccc(CCNC(=O)C2CCCN(c3ncccn3)C2)cc1", "note": "(stereo unspecified)", "activity, negative = less viability": "inactive: 5.49%"},
      {"compound": "CCCC(=O)N1CCN(c2ccc(NC(=O)c3cc4ccccc4o3)cc2Cl)CC1", "Potency": "active: 18.4 µM"},
      {"compound": "CCCCNC(=O)C1C(c2ccc(OC)cc2)=Nc2ccccc2N1C(=O)c1ccc2ncccc2c1", "note": "(stereo unspecified)", "Potency": "inconclusive [cytotoxic, single point]"},
      {"compound": "c1ccc2c(c1)CCN(c1nc3cc4c(cc3s1)OCCO4)C2", "Potency": "inconclusive [cytotoxic, single point]"},
      {"compound": "Cc1ccc(Cl)cc1N1CCN(S(=O)(=O)c2ccc3c(c2)NC(=O)C(C)C(=O)N3)CC1", "note": "(stereo unspecified)", "Potency": "inconclusive [cytotoxic, single point]"},
      {"compound": "CCOc1cc(/C=N/NC(=O)c2ccc(=O)n(C)c2)ccc1O", "activity, negative = less viability": "inactive: 23.1%"},
      {"compound": "Cc1ccccc1C(=O)O/N=C/c1c(N2CCOCC2)n(C)c2ccccc12", "Potency": "active: 2.82 µM"},
      {"compound": "CN(C)c1ccc(-c2noc(C3CCN(S(=O)(=O)c4cccc(C(=O)O)c4)CC3)n2)cc1", "Potency": "inconclusive [cytotoxic, partial curve]"},
      {"compound": "CC(=O)c1cccc(-c2ccnc3c2CC(C(=O)Nc2ccc4c(c2)OCO4)O3)c1", "note": "(stereo unspecified)", "Potency": "inconclusive [cytotoxic, full curve]"},
      {"compound": "CN(C)S(=O)(=O)c1ccc(C(=O)OCC2CCCO2)cc1", "note": "(stereo unspecified)", "activity, negative = less viability": "inactive: 5.33%"},
      {"compound": "CCCOc1ccc(CSc2nc3ccccc3[nH]2)cc1", "Potency": "inconclusive [cytotoxic, single point]"},
      {"compound": "COc1ccc(NC(=O)c2cc(-c3ccc(C)c(C)c3O)n[nH]2)cc1Cl", "Potency": "inconclusive [cytotoxic, single point]"},
      {"compound": "COc1cc(NC(=O)CCC2CCCC2)cc(-n2cnnn2)c1", "activity, negative = less viability": "inactive: -5.21%"},
      {"compound": "Clc1ccc(OCCCCCN2CCCC2)c(Br)c1", "Potency": "inconclusive [cytotoxic, single point]"},
      {"compound": "COc1cccc(CC(=O)Nc2cccc3ccccc23)c1", "activity, negative = less viability": "inactive: 19.4%"},
      {"compound": "Nc1c(C(=O)Nc2ccccc2F)sc2nc(-c3cccnc3)ccc12", "Potency": "inconclusive [cytotoxic, partial curve]"},
      {"compound": "O=C1NC[C@@H](CCCCN2C[C@H](Cc3ccc(O)cc3)N(CCC3CCCCC3)C(=O)C2=O)N(CCC2CCCCC2)C1=O", "Potency": "inconclusive [cytotoxic, single point]"},
      {"compound": "CCc1ccc2[nH]c(=O)c(CN(Cc3ccccc3)C(=O)Nc3ccccc3OC)cc2c1", "Potency": "inconclusive [cytotoxic, single point]"},
      {"compound": "COc1ccc(/C=N/NC(=O)c2cccc(NC(=O)c3ccccc3Cl)c2)cc1", "Potency": "active: 5.8 µM"},
      {"compound": "COC(=O)c1sc(-c2ccc(C(C)(C)C)cc2)cc1NC(=O)/C=C/C(=O)O", "Potency": "active: 11.6 µM"},
      {"compound": "O=C(N/N=C/c1ccccc1O)/C(=C/c1ccccc1)CCO", "Potency": "inconclusive [cytotoxic, partial curve]"}
    ]}
  ]
}
